The densities may have been worked out from excess volumes.
Experiment: xn = mol fraction of the nth substance listed
Conditions: 100 kPa

O + CCCCCC[n+]1ccn(C)c1.[Br-]
Conditions | mass density [kg/m3]
308.15 K, x2 = 0 | 993.9

CCCCCC[n+]1ccn(C)c1.[Br-] + O
mass density [kg/m3]
Conditions | x1 = 0.0044 | x1 = 0.0059 | x1 = 0.0075 | x1 = 0.0106 | x1 = 0.0134 | x1 = 0.0173 | x1 = 0.0226 | x1 = 0.0295 | x1 = 0.0367 | x1 = 1
293.15 K | 1009.4 | 1013.1 | 1016.9 | 1023.9 | 1030.1 | – | – | – | – | 1230
298.15 K | – | 1011.6 | – | – | 1028.2 | 1036 | 1045.6 | 1057 | – | 1226.5
303.15 K | – | 1009.9 | 1013.5 | 1020.2 | 1026.1 | 1033.7 | 1043.4 | 1054.4 | 1064.7 | 1222.9
308.15 K | – | 1008 | – | 1018.1 | 1023.9 | 1031.4 | 1040.7 | – | 1061.8 | 1219.2

CCCC[n+]1ccn(C)c1.O=S(=O)([O-])C(F)(F)F + O
mass density [kg/m3]
Conditions | 293.15 K | 298.15 K | 303.15 K | 308.15 K
x1 = 0.0002 | 999 | – | 996.3 | –
x1 = 0.0005 | 1000.3 | 999.1 | 997.6 | 995.9
x1 = 0.0012 | 1002.8 | – | 1000 | 998.3
x1 = 0.0022 | – | 1005.3 | – | –
x1 = 0.0024 | – | 1006.1 | 1004.5 | 1002.7
x1 = 0.0034 | 1011.1 | – | 1008.1 | –
x1 = 0.0038 | – | 1010.9 | – | –
x1 = 0.0048 | 1015.8 | 1014.4 | 1012.6 | 1010.7
x1 = 0.0058 | 1019.3 | 1017.8 | 1016.1 | 1014.1
x1 = 0.006 | – | – | 1016.9 | 1014.9
x1 = 0.0066 | 1022.2 | 1020.6 | 1018.8 | 1016.9
x1 = 0.0085 | 1028.6 | 1026.9 | 1025.1 | 1023
x1 = 0.0086 | 1028.7 | 1027 | 1025.1 | 1023.1
x1 = 0.0097 | – | 1030 | – | –
x1 = 0.0125 | 1040.8 | 1038.9 | 1036.9 | 1034.6
x1 = 0.0148 | – | 1045.7 | – | –
x1 = 0.0192 | 1059.5 | – | – | 1052.4
x1 = 0.024 | 1071.4 | – | 1066.5 | 1063.8
x1 = 0.0287 | – | 1079 | – | –
x1 = 0.0289 | – | 1079.8 | 1077.2 | 1074.3
x1 = 0.0383 | – | 1097.6 | – | –
x1 = 1 | – | – | – | 1289.7

CCCC[n+]1cccc(C)c1.F[B-](F)(F)F + O
mass density [kg/m3]
Conditions | 293.15 K | 298.15 K | 303.15 K | 308.15 K
x1 = 0.0001 | 998.4 | 997.2 | – | –
x1 = 0.0002 | 998.6 | 997.4 | 995.9 | –
x1 = 0.0003 | 998.9 | 997.7 | 996.2 | 994.5
x1 = 0.0005 | 999.2 | 998 | – | 994.8
x1 = 0.0007 | – | 998.4 | – | 995.2
x1 = 0.0009 | 1000 | 998.8 | 997.3 | –
x1 = 0.0011 | 1000.5 | 999.2 | 997.8 | 996.1
x1 = 0.0016 | 1001.5 | 1000.2 | 998.6 | 996.9
x1 = 0.0018 | – | 1000.5 | – | –
x1 = 0.0021 | 1002.4 | 1001.2 | – | 997.8
x1 = 0.0024 | – | 1001.7 | – | –
x1 = 0.0025 | 1003.2 | – | 1000.2 | 998.5
x1 = 0.0034 | 1005 | 1003.6 | 1002 | 1000.2
x1 = 0.0038 | 1005.8 | 1004.4 | – | 1000.9
x1 = 0.004 | – | 1004.7 | – | –
x1 = 0.0043 | – | 1005.2 | 1003.6 | –
x1 = 0.0044 | – | 1005.5 | – | –
x1 = 0.0049 | – | 1006.2 | – | –
x1 = 0.0055 | – | 1007.2 | – | –
x1 = 0.0056 | 1008.9 | – | 1005.7 | 1003.8
x1 = 0.0063 | – | 1008.8 | – | –
x1 = 0.0065 | 1010.5 | 1009 | 1007.2 | 1005.3
x1 = 0.0073 | – | 1010.6 | 1008.7 | –
x1 = 0.0083 | 1013.6 | 1012 | 1010.2 | 1008.2
x1 = 0.0089 | 1014.7 | 1013.1 | 1011.2 | 1009.2
x1 = 0.0091 | – | 1013.7 | – | –
x1 = 0.0102 | – | 1015.6 | – | –
x1 = 0.0122 | – | 1018.9 | – | –
x1 = 1 | 1185.4 | 1182.3 | 1178.5 | –

O + CCCC[n+]1cccc(C)c1.F[B-](F)(F)F
Conditions | mass density [kg/m3]
308.15 K, x2 = 0 | 993.9
